The results in this text go back to US20210269542A1 (POTENZA THERAPEUTICS, published 2021).

One test has as its target T1, cyno GITR-Fc (cynomolgus monkey).
T1 construct: also called cGITR; cynomolgus GITR
T1 chain: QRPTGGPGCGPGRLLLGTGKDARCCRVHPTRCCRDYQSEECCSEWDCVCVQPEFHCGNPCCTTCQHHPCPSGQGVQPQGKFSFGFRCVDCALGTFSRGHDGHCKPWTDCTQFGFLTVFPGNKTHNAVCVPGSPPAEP
Put plainly: BLI Octet RED384, ABP on AHQ sensor, 100 nM antigen, single concentration.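 Also: association and dissociation each tracked over 180 s, with dissociation run in antigen-free buffer.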 On the technique in general: Biolayer interferometry detects binding as a change in optical thickness at a sensor tip.

A further test has as its target T2, human GITR-Fc (human, UniProt Q9Y5U5 26-162).
T2 construct: also called recombinant hGITR; wild type human GITR-Fc
T2 sequence: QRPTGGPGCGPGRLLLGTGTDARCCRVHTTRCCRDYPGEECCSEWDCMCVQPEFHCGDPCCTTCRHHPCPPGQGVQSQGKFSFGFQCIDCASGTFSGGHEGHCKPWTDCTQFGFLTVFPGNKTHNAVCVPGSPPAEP
Described as above.

Test [1] deals with T3, human GITR expressed on cells (human, UniProt Q9Y5U5 26-241).
T3 sequence: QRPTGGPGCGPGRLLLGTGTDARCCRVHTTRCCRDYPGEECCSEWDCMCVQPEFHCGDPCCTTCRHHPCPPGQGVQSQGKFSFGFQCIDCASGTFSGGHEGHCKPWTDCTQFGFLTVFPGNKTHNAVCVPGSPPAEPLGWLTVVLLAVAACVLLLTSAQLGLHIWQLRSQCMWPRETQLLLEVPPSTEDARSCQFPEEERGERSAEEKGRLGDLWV
Put plainly: cell-based or functional assay.

B1: ABP29 (antibody, human IgG4 S228P, kappa)
heavy: QVQLQESGPGLVKPSETLSLTCAVSGYSISSEYMWGWIRQPPGKGLEWIGLIYHSGKTYYNPSLKSRVTISVDTSKNQFSLKLSSVTAADTAVYYCARDSGRGYGDYGGHHAFDIWGQGTMVTVSSASTKGPSVFPLAPCSRSTSESTAALGCLVKDYFPEPVTVSWNSGALTSGVHTFPAVLQSSGLYSLSSVVTVPSSSLGTKTYTCNVDHKPSNTKVDKRV[human IgG4 Fc with S228P (EU numbers) left out]GGGGSGGGGSGGGGSQVQLQESGPGLVKPSETLSLTCAVSGYSISSEYMWGWIRQPPGKGLEWIGLIYHSGKTYYNPSLKSRVTISVDTSKNQFSLKLSSVTAADTAVYYCARDSGRGYGDYGGHHAFDIWGQGTMVTVSSASTKGPSVFPLAPSSKSTSGGTAALGCLVKDYFPEPVTVSWNSGALTSGVHTFPAVLQSSGLYSLSSVVTVPSSSLGTQTYICNVNHKPSNTKVDKRVEPKSC
light: [about 100 residues left out][about 120 residues left out]
Regarding B1, the binding result in the test with cyno GITR-Fc is “no binding (tested: 100 nM)”. In the test with human GITR-Fc, this molecule displayed a Kd of 5.7 nM. The “Average EC50 in Human HT1080 (IL-8 induction)” value (“Average EC50 in Human HT1080” for short) in test [1] stood at 0.27 nM.

B2: ABP31 (antibody, human IgG4 S228P, kappa)
heavy: QVQLQESGPGLVKPSETLSLTCAVSGYSISSEYMWGWIRQPPGKGLEWIGLIYHSGKTYYNPSLKSRVTISVDTSKNQFSLKLSSVTAADTAVYYCARDSGRGYGDYGGHHAFDIWGQGTMVTVSSASTKGPSVFPLAPCSRSTSESTAALGCLVKDYFPEPVTVSWNSGALTSGVHTFPAVLQSSGLYSLSSVVTVPSSSLGTKTYTCNVDHKPSNTKVDKRV[human IgG4 Fc with S228P (EU numbers) left out]GGGGSQVQLQESGPGLVKPSETLSLTCAVSGYSISSEYMWGWIRQPPGKGLEWIGLIYHSGKTYYNPSLKSRVTISVDTSKNQFSLKLSSVTAADTAVYYCARDSGRGYGDYGGHHAFDIWGQGTMVTVSSASTKGPSVFPLAPSSKSTSGGTAALGCLVKDYFPEPVTVSWNSGALTSGVHTFPAVLQSSGLYSLSSVVTVPSSSLGTQTYICNVNHKPSNTKVDKRVEPKSC
light: [about 100 residues left out][about 120 residues left out]
Regarding B2, the binding result with cyno GITR-Fc is listed as “no binding (tested: 100 nM)”. In addition, in the test with human GITR-Fc, binding was characterised by a dissociation constant (Kd) of 7.6 nM. Also, the “Average EC50 in Human HT1080” value in test [1] was 0.18 nM.

B3: ABP30 (antibody, human IgG4 S228P, kappa)
heavy: QVQLQESGPGLVKPSQTLSLTCTVSGGSISSGGAVWSWIRQHPGKGLEWIGGIAYSGSTYYNPSLKSRVTISVDTSKNQFSLKLSSVTAADTAVYYCARDSVRGYGDYGGHHAFDIWGQGTMVTVSSASTKGPSVFPLAPCSRSTSESTAALGCLVKDYFPEPVTVSWNSGALTSGVHTFPAVLQSSGLYSLSSVVTVPSSSLGTKTYTCNVDHKPSNTKVDKRV[human IgG4 Fc with S228P (EU numbers) left out]GGGGSGGGGSGGGGSQVQLQESGPGLVKPSQTLSLTCTVSGGSISSGGAVWSWIRQHPGKGLEWIGGIAYSGSTYYNPSLKSRVTISVDTSKNQFSLKLSSVTAADTAVYYCARDSVRGYGDYGGHHAFDIWGQGTMVTVSSASTKGPSVFPLAPSSKSTSGGTAALGCLVKDYFPEPVTVSWNSGALTSGVHTFPAVLQSSGLYSLSSVVTVPSSSLGTQTYICNVNHKPSNTKVDKRVEPKSC
light: [about 100 residues left out][about 120 residues left out]
On to B3, for which the binding result with cyno GITR-Fc is reported as “no binding (tested: 100 nM)”. The affinity with human GITR-Fc, expressed as Kd, was 5.6 nM. Moreover, in test [1], the “Average EC50 in Human HT1080” value was found to be 0.31 nM.

B4: ABP32 (antibody, human IgG4 S228P, kappa)
heavy: QVQLQESGPGLVKPSQTLSLTCTVSGGSISSGGAVWSWIRQHPGKGLEWIGGIAYSGSTYYNPSLKSRVTISVDTSKNQFSLKLSSVTAADTAVYYCARDSVRGYGDYGGHHAFDIWGQGTMVTVSSASTKGPSVFPLAPCSRSTSESTAALGCLVKDYFPEPVTVSWNSGALTSGVHTFPAVLQSSGLYSLSSVVTVPSSSLGTKTYTCNVDHKPSNTKVDKRV[human IgG4 Fc with S228P (EU numbers) left out]GGGGSQVQLQESGPGLVKPSQTLSLTCTVSGGSISSGGAVWSWIRQHPGKGLEWIGGIAYSGSTYYNPSLKSRVTISVDTSKNQFSLKLSSVTAADTAVYYCARDSVRGYGDYGGHHAFDIWGQGTMVTVSSASTKGPSVFPLAPSSKSTSGGTAALGCLVKDYFPEPVTVSWNSGALTSGVHTFPAVLQSSGLYSLSSVVTVPSSSLGTQTYICNVNHKPSNTKVDKRVEPKSC
light: [about 100 residues left out][about 120 residues left out]
On to B4, for which the binding result with cyno GITR-Fc is “no binding (tested: 100 nM)”. The molecule further yielded a Kd with human GITR-Fc of 6.4 nM. The “Average EC50 in Human HT1080” value in test [1] was 0.3 nM.

By Kd is commonly meant the concentration at which binding is half-saturated. Higher therefore signals weaker binding.
